The results in this text go back to patent US20150274836A1.

In this experiment the target is C-terminal mesothelin peptide consisting of 50 amino acids (residues 539-588 of SEQ ID NO: 9) (human). As to the kind of experiment: ELISA on coated C-terminal mesothelin peptide, equilibrium constant by Prism / Scatchard. (In general: In an ELISA, binding on a coated surface is turned into a signal by an enzyme label.)
Sequence of C-terminal mesothelin peptide consisting of 50 amino acids (residues 539-588 of SEQ ID NO: 9) (human) (peptide, as listed by the source): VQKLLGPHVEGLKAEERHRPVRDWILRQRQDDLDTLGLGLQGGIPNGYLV

B1: SD1-human Fc fusion protein, P01857 part only (Fc fusion)
chain: QVQLVQSGGGLVQPGGSLRLSCAASDFDFAAYEMSWVRQAPGQGLEWVAIISHDGIDKYYTDSVKGRFTISRDNSKNTLYLQMNTLRAEDTATYYCLRLGAVGQGTLVTVSSS[human IgG1 Fc not shown]
For orientation: Kd means the concentration at which binding is half-saturated. High values mean weaker binding, low ones tighter binding. In the case of B1, the Kd turned out to be 16.1 nM.
